B1: LINE1-mini (parent)
chain: GGCAGAGCUCAACACAGCGUGGCAAAGUGGCUGUGGCUAGACUGCC

Read counts are not given, so values of variants with three or more changes are uncertain.

The data set covers variants of B1. Description: self-cleavage, relative activity (ratio to wild type); higher = more cleavage; in vitro, sequencing; the parent is a self-cleaving ribozyme.
On to GGCAGAGCUACACACAGCGUGGCAAAGAGACUGUGGCUAGACUGCC, for which the self-cleavage was found to be 0.02.
With GGCAGAGCUAAUGAAAGCGUGGCAAAGUGGCUGUGGCUAGACUGCC, the self-cleavage was found to be 0.01.
For GGCAGAGCUAUGCACAGGCUGGCAAAGUGGCUAUGGCUAGACUGCC, the self-cleavage was 0.01.
Turning to GGCAGAGCUAAACCCAGCGUGGCAAAGAGGCUGUGGCUAGCCUGCC, the self-cleavage is 0.
Take GGCAGAGCUAAACCCAGCGUGGCAAAGUGGGUGUGGCUAGACUGCC: the self-cleavage came out at 0.
The result for GGCAGAGCUAUACACAGCGUAGCAAAGUGGCUGUGGCUAGAUUGCC reads 0.03; that for GGCAGAGCUAUACACAGCGUGGCAAAGUGGCAGUGGCUAGACUGCC, 0.01; that for GGCAGAGCUAAACCCAGCGUGGCAAAGAGGCUGUGGCUAGACUGCA, 0.01.
Then GGCAGAGCUAAGCACAGCGUGGCAAAGUGGCUGUGGCUACACUGCC, with 0.01.
For GGCAGAGCGCAACACAGCGUGGCAAAGUGGCUGUGGCGAGAGUGCC, the self-cleavage came to 0.01.
Then GGCAGAGCUAACCACAGCGUGGCAAAGUGGCUGUGGCUAGACAGCC, with 0.02.
As to GGCAGAGCUAAACCCAGCGUGGCAAAGUGGCUGUGGCUAAACUGCC, the self-cleavage turned out to be 0.02.
Then GGCAGAGCUAAUCACUGCGUGGCAAAGUGGCUGUAGCUAGACUGCC, with 0.02; and GGCAGAGCUAACCAGAGCGUGGCACAAUGGCUGUGGCUCGACUGCC, with 0.
Take GGCAGAGCUAGACACAGCGUGGCAAAGUGGCUGUGGGUAGACUGCC: the self-cleavage worked out at 0.03.
Then GGCAGAGCUAAACCCAGCGUGGCAAAGUUGCUGUGGUUAGACUGCC, with 0.01.
As for GGCAGAGCGCAACACAGCGUGGCAAAGGGGCUGUGGCUAGACUGCU, the self-cleavage came out at 0.08.
Then GGCAGAGCGCAACACAGCGUGGCAAAGUGGCUGUGGCGAGAUUUCC, with 0.03.
GGCAGAGCUAGACACAGCGUGGCAAAGUGGCUGUGGCUAGAAUGCC: the self-cleavage turned out to be 0.
The result for GGCAGAGCUAAACUCAGCGUGGUAAAGUGGCUGUGGCUAGACUGCC reads 0; that for GGCAGAGCUAAACGCAGCGUGGCAAAGUGGCAGUGGCUAGACUGCA, 0.03.
Consider GGCAGAGCGCAACACAGCGUGGCAAAGCGGCUGUGGCUAGACUUCC, for which the self-cleavage is 0.04.
Regarding GGCAGAGCUACACACAGCCUGGCAAAGUGGCUGUGGCUAGACUGUC, the self-cleavage was found to be 0.
The result for GGCAGAGCUAACCACAGCGUGGCAGAGUGGCUGUGGCUAGACUGCA reads 0.02.
The result for GGCAGAGCUAAUCACAGCGUAGCAAAGUGGCUGUGGAUAGACUGCC reads 0.02.
Then GGCAGAGCUAGACAAAGCGUGGCAAAGUGGCAGUGGCUAGAUUGCC, with 0.01.
Consider GGCAGAGCUAGACACAGCGUGGCAAAGUGGCUGUGGCUAGACUGUC, for which the self-cleavage is 0.01.
Then GGCAGAGCUAAACCCAGCGUGGCAAAGUGCCUGUGGCUAGACUGCC, with 0.06; and GGCAGAGCUAUACUCAGCGUGGCAAAGUGGCUGUGGAGAGACUGUC, with 0.02.
The result for GGCAGAGCUAAUAACACCGUGGCAAAGUGGCUCUGGCUAGACUGCC reads 0.
Then GGCAGAGCGCAACACAGCGUGGCAAAGUGGCCGUGGCUAGACCGCC, with 0.09; and GGCAGAGCUAAGCACAGCGUGGCAAAGUGGCUGUGGCUAGAUUGCC, with 0; and GGCAGAGCUAAACUCAGCGUGGCAAAGUGGCUUUGGCCAGACUGCC, with 0.
GGCAGAGCUACAGACAGCGUGGCAAAGUGGCUGUGGCUAGACUGCC: the self-cleavage stood at 0.
Take GGCAGAGCUAAACGCAGCGAUGCAAAGUGGCUGUGGCUAGACUGCC: the self-cleavage is 0.04.
Then GGCAGAGCUAAGCACAGCGUGGCAAAGUGGCUGUGGCGAGACUGCC, with 0; and GGCAGAGCUAAACCCAGCCUGGCAAAAUGGCUGUGGCUAGACUGCC, with 0.01; and GGCAGAGCUAAUCACAACGUGGCAAAGUGGCUGUGGUUAGAAUGCA, with 0.
As to GGCAGAGCUAAGCACAGCGUGGCAAAGUGGAUGUGGCUAGACUGCC, the self-cleavage worked out at 0.04.
For GGCAGAGCUAAACCCAGCGUGGCAAAUUGUCUGUGGCUAGACUGCC, the self-cleavage turned out to be 0.03.
Then GGCAGAGCUAUACACAGCGAGGCAAAGUGGCUGUGGCCAGAGUGCC, with 0; and GGCAGAGCUAAGGACAGCGUGGUAAAAUGGCUGUGGCUAGACUGCC, with 0.01.
Then GGCAGAGCUAGACACAGCGUGGAAAAGUGGCUGUGGCUAGAAUGCC, with 0.02.
Consider GGCAGAGCUAAACCCAGCGUGGCAAAGUUGCUAUGGCUAGACUGCC, for which the self-cleavage amounted to 0.02.
On to GGCAGAGCUAAUCACAGUGUUGCAAAGUGGCUGUGGCUUGACUGCC, for which the self-cleavage was determined as 0.1.
The result for GGCAGAGCUAAGCACAGCGUGGCAAAGUGACUGUGACUAGACUGCC reads 0.04.
Consider GGCAGAGCUAACCGCAGCGUGGCAAAGUGGCUGUGGCUAGACUGCC, for which the self-cleavage is 0.02.
Then GGCAGAGCUAGACACAGUGUGGCAAAGUGGCUGCGGCUAGACUGAC, with 0.01; and GGCAGAGCUAAACGCAGCGUGGCAAAGUGUCUGUGGCUAGACUGCC, with 0.01; and GGCAGAGCUAUACAGAGCCUGGCAAAGUGGCUGUGGCUAGACUGCC, with 0.01.
Then GGCAGAGCUAACCACAGCGUGGCAAAGUGAAUGUCGCUAGACUGUC, with 0; and GGCAGAGCUAACCACCGCCUGGCAAAGUGGCUGUGGAUAAACUGCC, with 0.
Then GGCAGAGCUAGACACAGCGUGGCAAAGUUGCUGUGGCUAUAUUGCC, with 0.01; and GGCAGAGCUAGACGCAGAGUGGCAAAGUUGAUGUGGCUAGACUGCC, with 0.
Regarding GGCAGAGCUAAACUCAGCGUGGCAAAUUGGCUGUGGCUAAACUGCC, the self-cleavage was 0.01.
Then GGCAGAGCUAACCACAGCGUGGCCAAGUGGCUGUGGCUAGACUGCC, with 0.02.

For the origin of these results see the RNAGym collection of RNA variant scans (doi:10.7554/elife.90254).
